Experimental data taken from paper PMC4336329 (PLoS ONE, 2015).
Among all 310,000 compounds or so, about 14,000 (4.5%) showed an effect of 50% or more. Effects have a minus sign here. The list shows a part of the results.

target: human ether-à-go-go-related gene (hERG) potassium channel (human, UniProt Q12809); assay: primary screen, population patch clamp on CHO cells stably expressing hERG
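Further: peak tail current of the secondary pulse compared with the same well before compound.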

Chain of human ether-à-go-go-related gene (hERG) potassium channel (Q12809 whole entry, looked up): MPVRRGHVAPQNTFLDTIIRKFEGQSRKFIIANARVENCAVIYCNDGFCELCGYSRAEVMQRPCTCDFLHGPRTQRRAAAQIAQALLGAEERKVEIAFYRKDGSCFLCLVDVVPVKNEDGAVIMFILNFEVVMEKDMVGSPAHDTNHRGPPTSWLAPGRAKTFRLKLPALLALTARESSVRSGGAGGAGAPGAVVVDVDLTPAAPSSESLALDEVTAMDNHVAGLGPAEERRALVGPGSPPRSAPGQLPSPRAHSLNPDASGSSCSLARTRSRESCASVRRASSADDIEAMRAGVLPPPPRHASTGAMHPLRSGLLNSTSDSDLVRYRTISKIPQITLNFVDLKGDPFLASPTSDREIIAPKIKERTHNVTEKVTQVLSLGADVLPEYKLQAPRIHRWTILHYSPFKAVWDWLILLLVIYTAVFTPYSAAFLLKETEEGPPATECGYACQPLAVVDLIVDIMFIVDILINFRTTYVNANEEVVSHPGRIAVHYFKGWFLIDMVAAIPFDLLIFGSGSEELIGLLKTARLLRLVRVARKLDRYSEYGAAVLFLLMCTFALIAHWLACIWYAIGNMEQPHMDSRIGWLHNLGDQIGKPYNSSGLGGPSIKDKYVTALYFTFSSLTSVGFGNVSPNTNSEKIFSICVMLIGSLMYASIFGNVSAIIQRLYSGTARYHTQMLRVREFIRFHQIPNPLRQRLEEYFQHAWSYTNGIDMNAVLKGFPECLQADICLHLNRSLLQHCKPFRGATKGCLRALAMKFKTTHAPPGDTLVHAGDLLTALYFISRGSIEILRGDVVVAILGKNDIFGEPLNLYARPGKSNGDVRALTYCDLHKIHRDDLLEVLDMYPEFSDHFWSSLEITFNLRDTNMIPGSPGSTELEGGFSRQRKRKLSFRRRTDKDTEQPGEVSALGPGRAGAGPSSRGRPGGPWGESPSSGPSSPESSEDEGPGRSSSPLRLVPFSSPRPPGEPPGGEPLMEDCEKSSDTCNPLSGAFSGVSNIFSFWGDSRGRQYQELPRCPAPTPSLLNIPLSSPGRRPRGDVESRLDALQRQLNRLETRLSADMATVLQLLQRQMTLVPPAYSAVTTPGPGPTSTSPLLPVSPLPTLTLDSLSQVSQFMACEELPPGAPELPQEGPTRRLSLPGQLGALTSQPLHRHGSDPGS

SMILES	hERG current change (%, negative = inhibition) at 10uM [%]
C=CC#CC1(O)CC(C)N(C)CC1C (stereo not shown)	-0.439
O=C(CCCOc1ccccc1)NCCc1nc2ccccc2[nH]1	-5.39
O=C(OCc1ccc(COC(=O)c2ccccn2)cc1)c1ccccn1	25.6
Cc1ccc(NS(=O)(=O)c2ccc(Cl)c(C(=O)Nc3cccc(C(=O)O)c3)c2)cc1	8.84
CCCC(=O)N1CCN(c2ccc(NC(=O)C(C)(C)C)cc2Cl)CC1	-0.981
O=C(/C(=C/c1ccccc1)n1cncn1)c1ccc(Cl)cc1Cl	-6.84
CN(Cc1ccco1)C(=O)Cn1nc(-c2ccc(Cl)cc2)ccc1=O	-46.6
O=C(OCc1cc(=O)n2c(n1)sc1ccccc12)c1ccc2c(=O)n3c(nc2c1)CCC3	6.09
Cc1cccc(NC(=O)CSc2cc(C(=O)c3nccn3C)c3ccccc3n2)c1	16.9
CC(C)(C)NCC(O)COc1ccccc1C(=O)CCc1ccccc1.Cl (stereo not shown)	-69.9
CCCN(c1ccccc1F)S(=O)(=O)c1c[nH]c(C(=O)OC)c1	-12.9
CC(C)C(C(=O)O)N1CCS(=O)(=O)CC1 (stereo not shown)	-8.12
CC1SCC(=O)N(CC(=O)NCCc2ccccc2)C1=O (stereo not shown)	-9.09
CC(c1ccon1)N(C)Cc1cn(Cc2ccccc2)nc1-c1ccc2c(c1)OCO2 (stereo not shown)	-9.87
O=C(CSc1ccccn1)N/N=C/C=C/c1ccccc1	-27.7
O=C(COC(=O)C1COc2ccccc2O1)NC(=O)NC1CCCCC1 (stereo not shown)	-2.63
Cc1c(NC(=O)COC(=O)C2=COCCO2)cccc1[N+](=O)[O-]	23.1
O=C(CN1C(=O)S/C(=C\c2ccccc2F)C1=O)Nc1ccccc1O	23.3
COc1ccccc1N1CCN(C(=O)c2cccc(N3C(=O)C4C5C=CC(C5)C4C3=O)c2)CC1 (stereo not shown)	5.22
O=C(CSc1nc2ccccc2c(=O)n1-c1ccc(F)cc1)NCc1ccco1	-1.02
CC(=O)Nc1ccc(N(C(=O)CNC(=O)c2cccs2)C(C(=O)NC(C)(C)C)c2ccccc2)cc1 (stereo not shown)	-12.1
CCc1c(C)nc2ncnn2c1NCCc1ccc(OC)cc1	-12.7

SMILES	hERG current change (%, negative = inhibition) at 10uM [%]
Cc1ccc(-n2nnc(-c3cc4ccccc4n3C)n2)cc1	10.5
CCOc1ccc(S(=O)(=O)N2CCCCC2)cc1NC(=O)CN1C(=O)NC(C)(C2CC2)C1=O (stereo not shown)	-21.5
Cc1ccc(C)c(NC(=O)CCC(=O)NNC(=O)COc2cc(C)ccc2C)c1	28.8
COc1ccccc1NC(=O)CSC1=NC(=O)C(NC(C)=O)C(=O)N1 (stereo not shown)	0.223
COc1ccc(NC(=O)C2CCN(S(C)(=O)=O)CC2)cc1Cl	-4.68
CC(=O)N/C(=C/c1ccccc1)C(=O)NCCO	0.551
O=c1oc(-c2cccs2)nc2sc3c(c12)CCCCC3	-42.4
CCc1cccc(CC)c1NC(=O)c1cccc(NC(=O)c2ccccc2)c1	-17.1
COC(CNC(=O)c1ccc(N2CCC3(CC2)OCCO3)c([N+](=O)[O-])c1)OC	2.51
Cc1ccc(NC(=S)NCC2CCCO2)cc1C (stereo not shown)	-1.97
O=C(CC1c2ccccc2Oc2ccccc21)Nc1ccccc1F	16.2
Cc1nc(NC(=O)CCc2ccccc2)sc1C	8.6
CN1CCN(C(=O)c2cc(Cl)cc(Cl)c2NC(=O)c2ccco2)CC1	6.19
O=C(CSc1nc(-c2ccccc2)cc(C(F)(F)F)n1)c1cccc([N+](=O)[O-])c1	7.73
COc1ccc(OC)c(NC2=NCCS2)c1	11.3
CC(SCC(=O)Nc1ccccc1)c1nc2ccccc2c(=O)[nH]1 (stereo not shown)	5.65
Cc1ccc(-n2c(SCC(N)=O)nc3c([nH]c4ccccc43)c2=O)cc1	12.5
Cc1cc(-c2ccc(C)c(S(=O)(=O)NCc3ccc(Br)cc3)c2)on1	-31
CCOC(=O)C1Cc2c([nH]c3ccccc23)CN1.Cl (stereo not shown)	-9.94
CC1=NN(Cc2ccccc2)C(=O)/C1=C\c1ccc(N(C)C)cc1	5.39
COCCNC(=O)/C(C#N)=C/c1cc(C)n(-c2ccc(C)cc2)c1C	-4.18
Cc1cccc(C)c1NC(=S)N1CCCN(C)CC1	15.2

SMILES	hERG current change (%, negative = inhibition) at 10uM [%]
CCOC(=O)C1(Cc2ccccc2C)CCCN(S(=O)(=O)CC)C1 (stereo not shown)	13.9
CCN(CC(=O)NC(C)C)Cc1nc2c(Br)cc(Br)cc2c(=O)[nH]1	7.2
O=C(NCc1cccs1)C1CCN(S(=O)(=O)c2ccccc2F)CC1	10.4
Cc1cc(N2C(=O)C3CCCN3C2c2ccc(Cl)c(Cl)c2)no1 (stereo not shown)	-16.6
COc1ccc(C)c2sc(NC(=O)C3CC3)nc12	-8.73
CCOC(=O)c1c(NC(=O)CN2CCN(C(=O)c3ccco3)CC2)sc(C)c1C	-8.41
Cc1nc2ccc(NS(=O)(=O)c3ccc(F)c(F)c3)cc2s1	-10.7
Cc1cc(NC(=O)c2cccs2)ncc1NC(=O)C(C)C	8.67
CC(C)(C)C1CCC(=NNC(=O)C(=O)NCc2ccco2)CC1 (stereo not shown)	5.45
O=C(COc1ccc(Cl)cc1[N+](=O)[O-])NC1CCCCC1	0.964
COc1cccc(NS(=O)(=O)c2ccc(-c3coc(C)n3)cc2)c1	17.3
COc1cc(C2C(C#N)=C(N)N(c3cccnc3)C3=C2C(=O)CCC3)ccc1O (stereo not shown)	-12
O=C(COc1ccc(S(=O)(=O)N2CCOCC2)cc1)NCc1ccccn1	14.1
CCOC(=O)c1cnc2c(c(C3CC3)nn2C)c1N1CCOCC1	-3.26
CNc1nnc(CSc2nc3ccccc3s2)s1	-19
CCCCn1c(N)c(N(CC(C)C)C(=O)c2oc3c(Cl)cccc3c2C)c(=O)[nH]c1=O	-15.6
CSCC[C@@H](Nc1nc(-c2ccccc2)nc2c1oc1ccccc12)C(=O)O.Cl	-3.98
Cc1ccc(N(C(=O)CNC(=O)c2ccco2)C(C(=O)NC2CCCC2)c2ccncc2)cc1 (stereo not shown)	15.1
N#Cc1cc(C(=O)c2cc(Cl)ccc2O)cn(CC2CCCO2)c1=O (stereo not shown)	-10.1
O=C(O)C(=O)O.OC(CNc1ccccc1)Cn1ccc2ccccc21 (stereo not shown)	8.33
O=C(CNCc1ccc(Cl)cc1)Nc1ccc(C(=O)N2CCCCC2)cc1.O=C(O)C(=O)O	-16.2
COC(=O)C(/C=N/OCc1ccc([N+](=O)[O-])cc1)NC(=O)c1ccccc1 (stereo not shown)	-27.1

SMILES	hERG current change (%, negative = inhibition) at 10uM [%]
O=C(CSc1nc2nc(-c3cccs3)cc(C(F)(F)F)c2c(=O)[nH]1)Nc1c(F)c(F)c(F)c(F)c1F	12.1
CC(NC(=O)c1ccco1)C(=O)Nc1nc(-c2ccccn2)cs1 (stereo not shown)	-7.69
Cc1ccc(S(=O)(=O)CC(C)N2CCOCC2)c(S(=O)(=O)CC(C)N2CCOCC2)c1 (stereo not shown)	-8.9
O=C(NCC1CCCO1)c1ccc2c(=O)n(Cc3cccc(Br)c3)c(=S)[nH]c2c1 (stereo not shown)	4.33
CC(C)C(C(=O)Nc1sc2c(c1C#N)CCCCC2)N1C(=O)c2ccccc2C1=O (stereo not shown)	4.7
CCCCn1nc(C(=O)N(C)CC(=O)Nc2cccc(F)c2)c2ccccc2c1=O	-16.3
COCCN1Cc2cccc(C(=O)Nc3cccc(OC)c3)c2C1=O	8.16
COc1ccc(/C=N/OCC(=O)NC(c2ccccc2)c2ccccc2)cc1OC	2.65
Cc1cc(C)cc(NC(=O)CNC(c2ccccc2)c2ccccc2)c1	11.9
CSc1cccc(NC(=S)NCCCO)c1	-4.03
COC(=O)c1sc(NC(=S)NC(=O)c2cccc(C)c2)nc1C	-4.16
CS(=O)(=O)N(CC(=O)O)c1ccc2c(c1)OCO2	3.63
COc1c2ccoc2nc2c(OC)cccc12	2.8
O=C(O)CC(C(=O)O)c1cn(Cc2ccccc2)c2ccccc12 (stereo not shown)	16.5
CC(=O)N(Cc1ccc(Br)cc1)c1cccc(C)c1C	3.64
O=C(NCCCN1CCc2ccccc2C1)C1CCN(S(=O)(=O)N2CCCC2)CC1	-2.78
O=C(CCc1ccccc1)Nc1ccnn1C1CCN(Cc2ncc[nH]2)CC1	19
CC1CC(C)CN(S(=O)(=O)c2ccc(NC(=O)c3ccc(=O)[nH]c3)cc2)C1 (stereo not shown)	-1.77
O=C(NCc1ccc(F)cc1)C1CCN(S(=O)(=O)N2CCC3(CC2)OCCO3)CC1	1.49
O=C(c1cccc(S(=O)(=O)NCc2ccccc2)c1)N1CCCC1	19.2
O=C(Nc1ccc(NC(=O)C2CCCCC2)nc1)c1ccccn1	2.18
COc1nc(NCCN2CCOCC2)nc(Nc2ccc([N+](=O)[O-])cc2)n1	-50.7
